# Some of the results follow.
# B1: PhoQ; a variant is named by its letters at X, in order, P23837 (parent)
# chain: MKKLLRLFFPLSLRVRFLLATAAVVLVLSLAYGMVALIGYSVSFDKTTFRLLRGESNLFYTLAKWENNKLHVELPENIDKQSPTMTLIYDENGQLLWAQRDVPWLMKMIQPDWLKSNGFHEIEADVNDTSLLLSGDHSIQQQLQEVREDDDDAEMTHSVAVNVYPATSRMPKLTIVVVDTIPVELKSSYMVWSWFIYVLSANLLLVIPLLWVAAWWSLRPIEALAKEVRELEEHNRELLNPATTRELTSLVRNLNRLLKSERERYDKYRTTLTDLTHSLKTPLXXLQXXLRSLRSEKMSVSDAEPVMLEQISRISQQIGYYLHRASMRGGTLLSRELHPVAPLLDNLTSALNKVYQRKGVNISLDISPEISFVGEQNDFVEVMGNVLDNACKYCLEFVEISARQTDEHLYIVVEDDGPGIPLSKREVIFDRGQRVDTLRPGQGVGLAVAREITEQYEGKIVAGESMLGGARMEVIFGRQHSAPKDE
# Variants of: B1
# Assay: enrichment ratio after two sorts for PhoP signalling (ratio (wild type AVST 3.29)); higher = more functional
# Conditions: with PhoP (E. coli)
row,Variant,enrichment ratio
1,HCDN,≤ 0.25
2,KHKR,≤ 0.25
3,FKWH,≤ 0.25
4,IIFD,≤ 0.25
5,AILV,5.12
6,FCNG,≤ 0.25
7,EFRC,≤ 0.25
8,AQGT,3.18
9,NAMT,≤ 0.25
10,GSIG,2.91
11,PTIH,≤ 0.25
12,SKPL,≤ 0.25
13,QGWK,≤ 0.25
14,EYEP,≤ 0.25
15,VADE,≤ 0.25
16,YKEN,≤ 0.25
17,SFED,≤ 0.25
18,ALVI,5.22
19,DIMA,0.361
20,QSNN,≤ 0.25
21,NRSC,≤ 0.25
22,AYSG,0.64
23,HCYI,≤ 0.25
24,PFTQ,≤ 0.25
25,DSRH,≤ 0.25
26,SANN,≤ 0.25

row,Variant,enrichment ratio
1,TYRE,≤ 0.25
2,HYSF,≤ 0.25
3,WLTV,≤ 0.25
4,DNPN,≤ 0.25
5,TEMY,12.3
6,SAIY,0.848
7,RNYC,≤ 0.25
8,KDRT,≤ 0.25
9,VKLF,≤ 0.25
10,PVAT,≤ 0.25
11,RLLL,≤ 0.25
12,YFDS,≤ 0.25
13,NWRN,≤ 0.25
14,FDRR,≤ 0.25
15,VRYW,≤ 0.25
16,QFNW,≤ 0.25
17,HDRN,≤ 0.25
18,KKVT,≤ 0.25
19,RPTD,≤ 0.25
20,WDDM,≤ 0.25
21,PQHS,≤ 0.25
22,VWNN,≤ 0.25
23,QCNR,≤ 0.25
24,DDLT,≤ 0.25
25,QICL,≤ 0.25
26,QMPV,≤ 0.25

row,Variant,enrichment ratio
1,LSYT,≤ 0.25
2,MVDS,≤ 0.25
3,TSRW,≤ 0.25
4,KLFE,≤ 0.25
5,HESR,≤ 0.25
6,DARM,≤ 0.25
7,IAAT,≤ 0.25
8,VLLL,0.518
9,DMRS,≤ 0.25
10,HCRL,≤ 0.25
11,LVHQ,≤ 0.25
12,RAWF,≤ 0.25
13,AYRD,≤ 0.25
14,ETSH,≤ 0.25
15,VSRD,≤ 0.25
16,FCDK,≤ 0.25
17,NKGM,≤ 0.25
18,RFQQ,≤ 0.25
19,WIYM,≤ 0.25
20,AEWN,≤ 0.25
21,KERH,≤ 0.25
22,KNPF,≤ 0.25
23,YKGN,≤ 0.25
24,ICGV,≤ 0.25
25,FMKC,≤ 0.25
26,TQRG,≤ 0.25

row,Variant,enrichment ratio
1,EAWI,≤ 0.25
2,NNQW,≤ 0.25
3,FPRY,≤ 0.25
4,FWHP,≤ 0.25
5,PHNT,≤ 0.25
6,QKKP,≤ 0.25
7,FCFF,≤ 0.25
8,MMVW,≤ 0.25
9,MYNK,≤ 0.25
10,NCPY,≤ 0.25
11,IAVK,≤ 0.25
12,EPSV,≤ 0.25
13,MKFQ,≤ 0.25
14,FWNE,≤ 0.25
15,HSVI,≤ 0.25
16,EYGC,≤ 0.25
17,SRMV,≤ 0.25
18,AMCW,≤ 0.25
19,YDFK,≤ 0.25
20,GNPI,≤ 0.25
21,KSRT,≤ 0.25
22,LLQH,≤ 0.25
23,TRFD,≤ 0.25
24,IMKV,≤ 0.25
25,TPLG,≤ 0.25
26,IVYY,≤ 0.25

row,Variant,enrichment ratio
1,WQSS,0.334
2,MNYA,≤ 0.25
3,HMSY,≤ 0.25
4,QDND,≤ 0.25
5,IEGM,≤ 0.25
6,VEIV,≤ 0.25
7,YRDD,≤ 0.25
8,YRWA,≤ 0.25
9,HLFK,0.925
10,VAAI,≤ 0.25
11,YYMR,≤ 0.25
12,LPCI,≤ 0.25
13,EYNY,≤ 0.25
14,QTAP,≤ 0.25
15,NCNM,≤ 0.25
16,DLKG,≤ 0.25
17,THHL,2.02
18,KVYF,≤ 0.25
19,AWMF,≤ 0.25
20,MTES,≤ 0.25
21,RLFA,≤ 0.25
22,MNYL,12
23,KEDA,≤ 0.25
24,NQHT,≤ 0.25
25,AYSV,≤ 0.25
26,RTVC,≤ 0.25

row,Variant,enrichment ratio
1,HRMP,≤ 0.25
2,KESY,≤ 0.25
3,NVKT,≤ 0.25
4,YEFS,≤ 0.25
5,WNTW,≤ 0.25
6,HKTK,≤ 0.25
7,FQTF,≤ 0.25
8,AFIL,≤ 0.25
9,MQNV,≤ 0.25
10,AMPW,≤ 0.25
11,MHGH,≤ 0.25
12,FDDG,≤ 0.25
13,INIF,≤ 0.25
14,ISVM,≤ 0.25
15,WVTV,≤ 0.25
16,GHEF,≤ 0.25
17,RMHW,≤ 0.25
18,RSHP,≤ 0.25
19,WYPR,≤ 0.25
20,TNQF,1.81
21,ERHQ,≤ 0.25
22,YCFG,≤ 0.25
23,YRKC,≤ 0.25
